# Measured values taken from PubChem BioAssay AID924 (National Center for Advancing Translational Sciences (NCATS), 2007).
# “And” between values parts separate entries of the source, which are not always exact repeats. Equal entries are not always repeated. Hit rate of the full screen: of about 130,000 compounds, about 1,200 (0.92%) were called active. Inconclusive means that the source gave no clear call. Such entries were picked first, then a sample of the others. The call rests on the fitted dose curve; in most records, active means well fitted cell-killing curve with a large enough effect; inconclusive means small, poorly fitted or top-dose-only effect; inactive means no such curve, though single readings can be large or run the other way. Potencies beside an inconclusive call are fits to weak or partial responses and may not hold up.
# Assay: qHTS Screen for Compounds that Selectively Target Cancer Cells with p53 Mutations: Cytotoxicity of p53ts Cells at the Permissive Temperature; further: nearly all actives have a fitted effect of over 55% in size;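 on activity change, negative = cytotoxicity: 0% = DMSO and -100% = full killing by reference compound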
# Settings: H1299-p53A138V at 32C, ATP luminescence viability, 24 h; activity change, negative = cytotoxicity: at 46.1 µM (top of the series)
# Outline: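 Viability by ATPlite luminescence after 24 h compound treatment (up to 46 uM) at the permissive 32C. Cells are H1299 carrying p53 A138V. Scale runs from DMSO basal to 100 uM tamoxifen as full kill; AC50 from Hill fits.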
# Potency means the concentration at half of the fitted maximal effect; tags describe the fitted curve by direction and shape.
SMILES,Potency,"activity change, negative = cytotoxicity"
O=C(Nc1ccccc1)c1cc2ccccc2o1,"inconclusive: 11.2 µM [cytotoxic, partial curve]",–
CCOC(=O)c1ccc(NC(=O)CC2SCCNC2=O)cc1 (stereo not given),active: 12.6 µM,–
COc1ccc(NC(=O)c2c(-c3ccccc3)c(-c3ccccc3)nn(C)c2=O)c(OC)c1,–,inactive: 8.9%
CCCNC(=O)c1cc(-c2ccco2)on1,"inconclusive: 15.8 µM [cytotoxic, partial curve]",–
COc1ccc(-n2nc3c(N4CCCC(C(=O)NCCc5ccc(C)cc5)C4)nnc(C)c3c2C)cc1 (stereo not given),–,inactive: -2.2%
CC(C)(C)OC(=O)N1CCC(c2c(C(=O)NCCN3CCC(Cc4ccccc4)CC3)cnn2-c2ccccc2)CC1,"inconclusive: 12.6 µM [cytotoxic, single point]",–
COCCCNc1ncnc2c1cnn2-c1ccc(F)cc1,"inconclusive: 12.6 µM [cytotoxic, partial curve]",–
Nc1c(C(=O)NCCN2CCOCC2)c2nc3ccccc3nc2n1CCc1ccccc1,"inconclusive: 25.1 µM [cytotoxic, single point]",–
CN(C)c1ccc(N/C=C/C(=O)c2ccccc2)cc1,active: 5.01 µM,–
COc1ccc(-c2nc(-c3ccccc3)c(-c3ccc(O)cc3)[nH]2)cc1,"inconclusive: 31.6 µM [cytotoxic, single point]",–
CC1=CC(C)(C)Nc2ccc(OC(=O)c3ccco3)cc21,"inconclusive: 25.1 µM [cytotoxic, single point]",–
CC1Cc2cc(S(=O)(=O)NCc3ccccc3Cl)ccc2N1C(=O)C1CCC1 (stereo not given),–,inactive: 2.37%
Cc1ccc(C(=O)Nc2nc3ccccc3s2)s1,"inconclusive: 15.8 µM [cytotoxic, partial curve]",–
COc1cc(C)c2c(=O)cc(-c3ccccc3)oc2c1,"inconclusive: 12.6 µM [cytotoxic, partial curve]",–
COc1cccc(-n2ccnc2SCC(=O)Nc2ccccc2)c1,–,inactive: -19.4%
Oc1ccc(CN2CCCc3ccccc32)c2cccnc12,"inconclusive: 31.6 µM [cytotoxic, single point]",–
Fc1ccc(-c2nnc3sc(C4COc5ccccc5O4)nn23)cc1 (stereo not given),"inconclusive: 31.6 µM [cytotoxic, single point]",–
CN(C(=O)CSc1nc2c(c(=O)[nH]1)CCCC2)c1ccccc1,–,inactive: 1.12%
COc1ccc(-c2nc(SCC(=O)Nc3ccc4c(c3)OCO4)c(-c3ccc(OC)cc3)[nH]2)cc1,"inconclusive: 31.6 µM [cytotoxic, single point]",–
Cc1ccc2c(c1)CCCN2C(=O)Nc1ccc2c(c1)OCO2,"inconclusive: 25.1 µM [cytotoxic, single point]",–
CCOc1ccccc1NC(=O)Nc1nnc(N2CCCCCC2)s1,"inconclusive: 10 µM [cytotoxic, partial curve]",–
COc1cc(C(=O)Nc2ccc3oc(-c4ccccc4)nc3c2)cc(OC)c1OC,"inconclusive: 20 µM [cytotoxic, single point]",–
CC(C)=CCc1c(O)cc2occ(-c3ccc4c(c3)OCO4)c(=O)c2c1O,"inconclusive: 31.6 µM [cytotoxic, single point]",–
CCOC(=O)c1cc(-c2ccc(F)cc2)n(CCC(=O)Nc2nc3ccc(OC)cc3s2)c1C,–,inactive: 13.7%

SMILES,Potency,"activity change, negative = cytotoxicity"
C=COCC1CN2C(CCC(C)C2c2ccc(Br)cc2)C(=O)O1 (stereo not given),–,inactive: -2.02% [at 9.22 µM] and inactive: 3.53% [at 9.22 µM]
COC(=O)c1c(NC(=O)Cc2coc3ccc(C(C)C)cc23)sc2c1CCC2,"inconclusive: 2 µM [cytotoxic, full curve]",–
CCS(=O)(=O)c1ncc(Cl)c(C(=O)Nc2ccccc2)n1,"inconclusive: 15.8 µM [cytotoxic, single point]",–
Cc1ccc(N=C2NC(=O)CC(C(=O)Nc3cc(C(F)(F)F)ccc3Cl)S2)cc1 (stereo not given),"inconclusive: 31.6 µM [cytotoxic, single point]",–
O=C(Nn1cnnc1)c1cc(-c2ccccn2)nc2ccccc12,–,inactive: -25.3%
Cc1ccc(N(CC(=O)Nc2cc(C)ccc2C)S(=O)(=O)c2c(C)noc2C)cc1,–,inactive: 3.36%
COc1ccc(Cl)cc1CNCCSc1nnnn1-c1ccccc1,"inconclusive: 2.82 µM [cytotoxic, single point]",–
CCN(CC)CCCNC(=O)c1nn(C)c2c1CSc1ccccc1-2,"inconclusive: 25.1 µM [cytotoxic, single point]",–
COc1ccc(C(=O)NNc2ncnc3c2cnn3-c2cccc(Cl)c2)cc1OC,"inconclusive: 31.6 µM [cytotoxic, single point]",–
NC(=O)c1cc2ccc(O)cc2oc1=Nc1ccccc1,"inconclusive: 12.6 µM [cytotoxic, single point]",–
CCCCNC(=O)c1cc(-c2ccc(OC)cc2)nc2n[nH]c(-c3cccc([N+](=O)[O-])c3)c12,–,inactive: -2.4%
Cc1ccc(C(=O)COC(=O)c2cccc(NC(=O)c3ccc(Cl)cc3Cl)c2)cc1,"inconclusive: 20 µM [cytotoxic, single point]",–
CSc1nc(C)cc(OCC(=O)N2CCOCC2)n1,"inconclusive: 0.501 µM [cytotoxic, full curve, poor fit]",–
CC(=O)c1ccccc1OCC(O)Cn1c(CO)nc2ccccc21 (stereo not given),"inconclusive: 12.6 µM [cytotoxic, partial curve]",–
Cc1cc(OCC(O)CN2CCN(c3cccc(Cl)c3)CC2)ccc1Cl (stereo not given),"inconclusive: 31.6 µM [cytotoxic, single point]",–
FC(F)(F)c1ccccc1-c1nc(NCc2cccs2)c2ccccc2n1,–,inactive: 12.4%
O=C(NCc1ccco1)c1ccc2c(c1)N(Cc1c(F)cccc1Cl)C(=O)c1ccccc1S2,–,inactive: 7.39%
CC1(C)Cc2c(sc3nc(SCC(=O)N4CCOCC4)nc(N)c23)CO1,"inconclusive: 25.1 µM [cytotoxic, single point]",–
CCS(=O)(=O)c1ncc(Cl)c(C(=O)Nc2c(C(=O)Nc3cccc(C)c3)oc3ccccc23)n1,"inconclusive: 31.6 µM [cytotoxic, single point]",–
COc1ccccc1N1CCN(C(CNC(=O)C(=O)NCc2ccc(F)cc2)c2cccnc2)CC1 (stereo not given),"inconclusive: 35.5 µM [cytotoxic, single point]",–
CCCCC(=O)Nc1ccc2c(c1)OCCO2,"inconclusive: 10 µM [cytotoxic, partial curve]",–
Cc1cc(C)cc(NC(=O)CSc2oc(-c3ccco3)nc2S(=O)(=O)c2ccc(Cl)cc2)c1,active: 10 µM,–
CCCOc1ccc(CNC(=O)CCCn2nc(C)c3sc4ccccc4c3c2=O)cc1,"inconclusive: 15.8 µM [cytotoxic, single point]",–
O=C(Nc1cc(N2CCOCC2)ncn1)NC1(C(F)(F)F)Oc2ccc(Cl)cc2O1 (stereo not given),"inconclusive: 0.158 µM [cytotoxic, full curve]",–

SMILES,Potency,"activity change, negative = cytotoxicity"
Cc1cccc(NC(=O)COC(=O)c2ccccc2-c2nc3ccccc3s2)c1C,"inconclusive: 7.94 µM [cytotoxic, partial curve, poor fit]",–
Cc1ccc(CCNC(=O)c2cc3n(n2)CCCN(Cc2ccc(C)cc2)C3=O)cc1,–,inactive: -4.62%
COc1ccc(-c2nc3cnc(N4CCNCC4)nc3n(Cc3cccs3)c2=O)cc1,"inconclusive: 31.6 µM [cytotoxic, single point]",–
Cc1cc(N2CCOCC2)nc2ccc(NC(=O)CCC(=O)N3CCCC(C)C3)cc12 (stereo not given),–,inactive: -12.3%
CC(C)c1ccc2oc(-c3ccc(N)cc3)nc2c1,active: 6.31 µM,–
COc1ccc(-c2nc(SCC(=O)Nc3c(C)cc(C)cc3C)n[nH]2)cc1,"inconclusive: 25.1 µM [cytotoxic, partial curve]",–
COc1cccc(CNc2cc(C)nc3nc(-c4ccc(C)cc4)nn23)c1,"inconclusive: 10 µM [cytotoxic, partial curve]",–
CCCC(=O)Nc1cccc(NC(=O)c2ccc3c(c2)OCCO3)c1,"inconclusive: 31.6 µM [cytotoxic, single point]",–
Nc1c(N2CCCC2)cc(Cl)c2nonc12,"inconclusive: 31.6 µM [cytotoxic, single point]",–
CC1N=C2c3ccccc3N=C(SCC(=O)NCCc3ccccc3)N2C1=O (stereo not given),–,inactive: 3.75%
COc1ccc(Nc2c3c(nc4ccc(NC(=O)c5ccc(F)cc5)cc24)CCCC3)cc1OC,"inconclusive: 22.4 µM [cytotoxic, single point]",–
O=C(CSc1cccc2cccnc12)N1CCCC1,–,inactive: 2.45%
Cc1cc(OCCCn2ccnc2)cc(C)c1Cl,"inconclusive: 12.6 µM [cytotoxic, partial curve]",–
CCOc1ccc(CCNC(=O)CCCn2nc(C)c3sc4ccccc4c3c2=O)cc1OCC,"inconclusive: 31.6 µM [cytotoxic, single point]",–
CN(C)c1ccc(-c2ccncc2)cc1,–,inactive: 21.8%
CC(C)C(=O)Nc1cccc(-c2nc3ccccc3c(=O)o2)c1,"inconclusive: 15.8 µM [cytotoxic, partial curve]",–
Cc1ccc(CN(C(=O)COc2cccc([N+](=O)[O-])c2)c2ccccn2)o1,"inconclusive: 12.6 µM [cytotoxic, partial curve]",–
CC(=O)Nc1ccc(/C=N/Nc2nc3ccccc3[nH]2)cc1,"inconclusive: 35.5 µM [cytotoxic, single point]",–
Cn1cccc1C(=O)OCc1csc(-c2ccccc2)n1,"inconclusive: 12.6 µM [cytotoxic, partial curve]",–
Cc1cccc(NC(=O)C2CCCN(S(=O)(=O)c3cnc[nH]3)C2)c1C (stereo not given),–,inactive: 21.7%
O=C(Nc1ccc(N2CCCCC2)cc1)c1ccccc1,active: 5.01 µM,–
CN(c1ccc(Cl)cc1)S(=O)(=O)c1nnc(NC(=O)C2CCCCC2)s1,–,inactive: 4.59%
